Experimental data published in PubChem BioAssay AID624296 (National Center for Advancing Translational Sciences (NCATS), 2012).
The whole screen tested about 350,000 compounds, of which about 9,900 (2.8%) were called active. The shares of active, inactive and inconclusive entries below differ from those in the screen. The call rests on the fitted dose curve; in most records, active means well fitted activation curve with a large enough effect; inconclusive means small, poorly fitted or top-dose-only effect; inactive means no such curve, though single readings can be large or run the other way. No potency is given beside an inconclusive call; the fits are too rough.

Experiment: A quantitative high throughput screen for small molecules that induce DNA re-replication in MCF 10a normal breast cells. Further: nearly all actives have a fitted effect of over 50% in size. On activity, positive = re-replication: % of control where 0% means no effect.
Details: MCF 10A DNA re-replication, Hoechst nuclear intensity, 48 h; activity, positive = re-replication: at 46.1 µM (top of the series)
Potency means the concentration at half of the fitted maximal effect; tags describe the fitted curve by direction and shape.

Row | SMILES | activity, positive = re-replication | Potency
1 | COc1ccccc1C(=O)N1CCC(C(=O)c2ccc(F)cc2)CC1 | inactive: 0.242% | 
2 | CCCn1nc(C(=O)Nc2cccc(C(=O)OC)c2)c2ccccc2c1=O | inactive: 8.01% | 
3 | O=C(Nc1ccccc1)C1=C[C@@H](C2CCCCC2)C[C@@H](OCCCCO)O1 |  | inconclusive [activator, single point]
4 | O=C(CCC(=O)N1CCN(Cc2ccc(F)cc2)CC1)Nc1nnc(C2CCCCC2)s1 |  | inconclusive [activator, single point]
5 | COCCNC(=O)CN(Cc1ccc(OC)cc1)C(=O)CCC(=O)Nc1nccs1 | inactive: -2.03% | 
6 | COCCCn1c(=O)c2sccc2n2c(CCCC(=O)NCc3ccc(OC)cc3)nnc12 | inactive: -1.64% | 
7 | O=C(CCCSc1nc2ccccc2s1)NCc1ccco1 | inactive: 27.2% | 
8 | COc1ccccc1N1CCN(c2ccc([N+](=O)[O-])cc2Cl)CC1 |  | active: 7.31 µM
9 | O=C(O)CCCNC(=O)CC1S/C(=N/N=C/c2ccccc2O)NC1=O (centres undefined) |  | inconclusive [activator, partial curve, poor fit]
10 | N/C(Cc1ccc([N+](=O)[O-])cc1)=N\OC(=O)c1ccc([N+](=O)[O-])cc1 | inactive: 1.95% | 
11 | O=C(NCCc1ccccc1)c1coc(=O)c(Br)c1 |  | inconclusive [activator, single point]
12 | O=C(CCN1C(=O)COc2ccccc21)NCCCN1CCc2ccccc2C1 |  | inconclusive [activator, partial curve, poor fit]
13 | CC(=O)c1cccc(CN2CCC(C(=O)Nc3ccc(Oc4cccnc4)cc3)CC2)c1 |  | inconclusive [activator, single point]
14 | O=S(=O)(c1ccccc1)c1ncc(C(F)(F)F)cc1O | inactive: -11.6% | 
15 | O=C(CC1(O)C(=O)Nc2cc(Cl)cc(Cl)c21)c1ccccc1O (centres undefined) |  | active: 14.6 µM
16 | CC(Sc1nnc(NC2CCCCC2)s1)C(=O)Nc1ccc2c(c1)C(=O)c1ccccc1C2=O (centres undefined) |  | inconclusive [activator, full curve, poor fit]
17 | Cc1ccc2nc(N3CCN(Cc4nnnn4C4CCCC4)CC3)c(C#N)cc2c1 |  | inconclusive [activator, partial curve]
18 | C/C(=N\NC(=O)c1cc2ccccc2cc1O)c1ccc(C)o1 |  | inconclusive [activator, single point]
19 | O=C(O)c1cccc(-n2sc3ccccc3c2=O)c1 |  | inconclusive [activator, full curve, poor fit]
20 | O=C(O)C(c1ccccc1)N1CCCCC1 (centres undefined) | inactive: -11.1% | 
21 | O=C(c1ccc(S(=O)(=O)NCc2ccco2)cc1)N1CCN(Cc2ccccc2)CC1 |  | inconclusive [activator, partial curve, poor fit]
22 | COc1ccccc1OCCC(=O)OCC(=O)Nc1cc(S(=O)(=O)N(C)C)ccc1Cl |  | inconclusive [activator, single point]
23 | COC(=O)c1cc(COC(=O)CNC(=O)c2ccc(Br)cc2)oc1C | inactive: 9.6% | 

Row | SMILES | activity, positive = re-replication | Potency
24 | Cc1ccc(S(=O)(=O)c2ccc([N+](=O)[O-])o2)cc1 |  | inconclusive [activator, full curve, poor fit]
25 | N#Cc1c(-c2cccnc2)c2c([nH]c1=O)-c1ccccc1OC2 |  | active: 14.6 µM
26 | Cc1ccc(-c2nc3cccnc3s2)cc1NC(=O)C1c2ccccc2Oc2ccccc21 | inactive: -0.909% | 
27 | CCC1(c2ccccc2)NC(=O)N(CC(=O)Nc2cc(S(=O)(=O)N3CCCCC3)ccc2N(C)C)C1=O (centres undefined) |  | inconclusive [activator, full curve, poor fit]
28 | COc1ccc2cc(C#N)c(SCC(=O)N3CC(=O)Nc4ccccc43)nc2c1 |  | active: 20.6 µM
29 | COc1cccc(CCNC(=O)c2cccc(NC(=O)C3=C(C)OCCS3)c2)c1 |  | inconclusive [activator, single point]
30 | CCOC(=O)CN1C(=O)C2(OCCCO2)c2cc(Br)ccc21 | inactive: 2.75% | 
31 | COc1c(F)c(F)c(C(=O)Nc2ccc3oc(-c4ccncc4)nc3c2)c(F)c1F | inactive: 0.226% | 
32 | COc1ccc(CCNC(=O)c2cc(S(=O)(=O)N3CCCCC3)ccc2Cl)cc1 |  | inconclusive [activator, single point]
33 | Cc1ccc(S(=O)(=O)N(C)C)cc1NC(=S)NC(C)CCC(C)C (centres undefined) | inactive: 16.2% | 
34 | O=C(NC(=S)Nc1ccccc1N1CCOCC1)c1ccc(-c2cc(Cl)ccc2Cl)o1 |  | inconclusive [activator, full curve]
35 | Cc1ccccc1NC(=O)c1ccc(Cl)c(NC(=O)c2ccncc2)c1 | inactive: 2.55% | 
36 | CCCCS(=O)(=O)N1CCCC(C(=O)Oc2ccccc2)C1 (centres undefined) |  | inconclusive [activator, partial curve, poor fit]
37 | Cc1ccc(NC(=S)NC2CC3CCCC(C2)N3Cc2cccs2)cc1 (centres undefined) |  | inconclusive [activator, partial curve, poor fit]
38 | CCOC(=O)C1=C(C)OC(N)=C(C#N)C1c1cccs1 (centres undefined) | inactive: 2.19% | 
39 | COc1cccc(-c2cc3nc4c(c(N5CCC6(CC5)OCCO6)n3n2)CCC4)c1 |  | inconclusive [activator, single point]
40 | CN1CCN(c2ccccc2NC(=O)COc2ccc(Cl)cc2)CC1 |  | inconclusive [activator, single point]
41 | C=CCNCCOc1ccccc1-c1ccccc1 |  | inconclusive [activator, single point]
42 | COc1ccccc1/C=C1\SC(=S)N(CCC(=O)Nc2cc(C)on2)C1=O |  | inconclusive [activator, single point]
43 | Cn1c2ccccc2c(=O)c2ccc(C#Cc3ccccn3)cc21 |  | inconclusive [activator, single point]
44 | Cc1ccccc1N1CN(Cc2ccco2)CNC1=S | inactive: 0.166% | 
45 | CC(C)(C)[C@@H]1C=C(C(=O)O)O[C@H](OCc2ccc(CO)cc2)C1 |  | inconclusive [activator, full curve, poor fit]
46 | Nc1nc(N)c(Br)c(Nc2ccc(Cl)c(Cl)c2)n1 |  | inconclusive [activator, partial curve, poor fit]

Row | SMILES | activity, positive = re-replication | Potency
47 | C=CCc1cc(Cl)ccc1OC(=O)Nc1cccc(Cl)c1 |  | inconclusive [activator, single point]
48 | Cc1ccc2oc(-c3cccc(NC(=O)c4cc(-n5cnnc5)ccc4Cl)c3)nc2c1 |  | active: 8.2 µM
49 | Cc1nn(C)cc1/C=N\NC(=O)c1ccc(Cn2cc(Cl)cn2)cc1 |  | inconclusive [activator, single point]
50 | CC1=NN(C(=O)c2csc(C(C)C)c2)C(O)(C(F)(F)F)C1 (centres undefined) |  | inconclusive [activator, single point]
51 | CSc1ccccc1Sc1cc(C(=O)O)c2ccccc2n1 |  | inconclusive [activator, partial curve, poor fit]
52 | Cc1cccc(C)c1OC(=O)CN(c1ccc(Cl)cc1)S(C)(=O)=O |  | inconclusive [activator, partial curve, poor fit]
53 | Cc1oc2cc3oc(=O)c(CC(=O)NCC(=O)N[C@@H](C(=O)O)c4ccccc4)c(C)c3cc2c1C |  | inconclusive [activator, full curve, poor fit]
54 | O=C(Nc1ccc(Br)c(C(F)(F)F)c1)c1ccccc1 |  | inconclusive [activator, single point]
55 | Clc1ccc(/C=N/Nc2ncnc3ccccc23)cc1Cl |  | inconclusive [activator, single point]
56 | COc1ccccc1C1CC(c2cccc(NS(C)(=O)=O)c2)=NN1S(=O)(=O)c1ccccc1 (centres undefined) |  | inconclusive [activator, single point]
57 | O=C(/C=C/c1ccc(O)c(O)c1)c1ccc(S(=O)(=O)N2CCCCCC2)cc1 |  | inconclusive [activator, single point]
58 | CCCc1nc2c(=O)n(C)c(=O)nc-2n(C)n1 |  | active: 10.3 µM
59 | Cc1ccc(C(=O)CCS(=O)(=O)c2ccc(Cl)cc2)cc1 |  | active: 3.26 µM
60 | Cc1cc(C)c(C(=O)/C=C/c2cccs2)c(=O)[nH]1 |  | inconclusive [activator, single point]
61 | Cc1ccccc1-n1nnnc1SCC(=O)Nc1ccc(N2CCN(C)CC2)cc1 |  | inconclusive [activator, full curve]
62 | c1ccc(-c2nc(NCCCN3CCOCC3)c3ccccc3n2)cc1 |  | inconclusive [activator, partial curve, poor fit]
63 | Cc1ccccc1NC(=S)N(CCN1CCOCC1)Cc1ccccc1F | inactive: 3.02% | 
64 | Cc1cc(C)c2[nH]c(=O)c(C(c3nnnn3C(C)(C)C)N3CCN(C(=O)c4ccco4)CC3)cc2c1 (centres undefined) | inactive: 1.06% | 
65 | COC(=O)[C@@]1(Cc2ccc(F)cc2)[C@@H]2[C@@H](CC(=O)[C@H]2CC(=O)C(=O)N(C)C)CN1C(=O)c1ccccc1 |  | inconclusive [activator, single point]
66 | CCC(C(=O)N1CCOCC1)n1nc(C)c2sc3ccccc3c2c1=O (centres undefined) | inactive: 13.5% | 
67 | CCCCn1c(SC(C)C(=O)c2ccc(OC)cc2)nc2cc(S(N)(=O)=O)ccc21 (centres undefined) |  | inconclusive [activator, single point]
68 | CCC(C)NS(=O)(=O)c1ccc(S(=O)(=O)N(CCc2ccc(OC)c(OC)c2)Cc2cccs2)cc1 (centres undefined) |  | inconclusive [activator, partial curve]
69 | NS(=O)(=O)c1ccc(NC(=O)C2CCCO2)cc1 (centres undefined) |  | inconclusive [activator, full curve, poor fit]
